Reference: PubChem BioAssay AID1508623 (National Center for Advancing Translational Sciences (NCATS), 2021)
The whole screen tested about 48,000 compounds, of which about 450 (0.94%) were called active. Not shown: some 19% with an inconclusive outcome. Calls follow the shape of the dose curve; as a rule, active = well fitted inhibition curve with a large enough effect; inconclusive = small, poorly fitted or top-dose-only effect; inactive = no such curve, though single readings can be large or run the other way. The list shows a part of the results.

Test: Primary qHTS for Identification of Small Molecule Inhibitors of Huntingtin Promoter Activity; also: nearly all actives have a fitted effect of over 50% in size
Conditions: HEK293 HTT promoter firefly luciferase reporter (activity 0% = vehicle and -100% = no light), 24 h; series mostly up to 57.5 µM; activity change, negative = inhibition: at the top concentration
In short: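 HEK293 Fluc reporter, 2,500 cells/well, 24 h pre-culture; cpds up to 57.5 uM final, 24 h 37 degrees C; Dual-Glo, 10 min RT; normalized vehicle = 0%, zero RLU = -100%.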

Activity change, negative = inhibition, inactive:
COC(=O)c1ccc(C(=O)OC)c(NC(=O)c2c(-c3ccccc3)noc2C)c1 -22.6%, Cc1csc2nc(COc3ccc(NC(=O)C(C)C)cc3)cc(=O)n12 31%, CCOC(=O)Cc1c(C)nc2cc(-c3ccc(C(C)(C)C)cc3)nn2c1C -8.81%, Cc1ccc(NC(=O)c2c3c(nc4ccccc24)C(=O)N(C2CCCCC2)C3)cc1F -9.95%, C=CCc1ccccc1OCc1nc2ccc(C)cc2[nH]1 -25%, Cc1ccccc1NC(=O)CC1NCCNC1=O (centres undefined) -0.0566%, COc1ccc(-n2ncc(C(=O)N3CCN(C4CCCCC4)CC3)c2C2CCN(C(=O)OC(C)(C)C)CC2)cc1 2.05%, Cn1c(=O)n(CC(=O)O)c(=O)c2c1nc1n2CCCN1c1ccc(Cl)cc1 -1.51%, CCOC(=O)c1c(NC(=O)CSc2nc(-c3ccc(OC)cc3)cc(C(F)(F)F)n2)sc(C)c1C -6.86%, CCN(CC)S(=O)(=O)c1ccc2c(c1)c(=O)c(C(=O)NCCc1ccccc1)cn2C -1.55%, COc1ccc(C2CC(=O)c3cnc4c(-c5ccc(F)cc5)c(C)nn4c3C2)cc1OC (centres undefined) -1.45%, CCOc1ccc(NC(=O)CC2C(=O)N(c3ccccc3)C(=O)N2C2CCCC2)cc1 (centres undefined) -16.8%, Cc1cccc(N2CCN(C(=O)c3cnn(-c4ccc(F)cc4F)c3C3CCN(C(=O)OC(C)(C)C)CC3)CC2)c1C -18.3%, Cc1ccc(CNC(=O)Cn2nc(N3CCN(c4ccccc4)CC3)ccc2=O)cc1 -23.1%, COc1ccc(-n2c(SCC(=O)NCc3ccco3)nc3c([nH]c4ccccc43)c2=O)cc1 -16.9%, CCOc1ccccc1NC(=O)c1cc2cc3cc(C)ccc3nc2s1 -8.63%, CCOC(=O)c1cc2c(=O)n3ccccc3nc2n(Cc2ccco2)c1=NC(=O)c1cccc(C)c1 -21.1%, CCCNC(=O)CSc1c2c(nc3ccc(Cl)cc13)CCCC2 -9.52%, CCCn1c2ccccc2c2cnn(CC(=O)N(CC)c3cc(C)ccc3C)c(=O)c21 -27.4%, Cc1ccc(NC(=O)CSc2nc3ccccc3c(=O)n2CCC(=O)NC2CCCCC2)cc1C -8.25%, Cc1cccc(N2CCN(C(=O)C3CCN(S(=O)(=O)c4c(C)noc4/C=C/c4ccccc4F)CC3)CC2C)c1 (centres undefined) -19.7%, Cc1ccc2oc(=O)c3cnn(CC(=O)N4CCN(c5ccccc5F)CC4)c3c2c1 2.1%, Cc1ccc(C2C=C(c3ccccc3)Nc3nc(NS(=O)(=O)c4ccc(C)cc4)nn32)cc1 (centres undefined) -3.16%, Cc1cc(=O)n(Cc2ccccc2)c2c1c(C)nn2-c1ccccc1 8.89%, Cc1nc2c3ccccc3nc(NNC(=O)CCC(=O)N3CCN(c4cc(Cl)ccc4C)CC3)n2n1 -11.5%, COc1cccc(NC(=O)c2sc3nc(C)c(C(=O)Nc4ccc(C)cc4C)c(-c4ccco4)c3c2N)c1 -12.5%, COc1ccc(OCC(=O)Nc2cccc(C(=O)OCc3cc(=O)n4nc(C)sc4n3)c2)cc1 -9.31%, CCc1cccc(NC(=O)CSc2nc3ccccc3nc2N2CCCCC2)c1 -27.8%, CNC(=O)CCCN1C(=O)CCn2nc(-c3cn(C)c4ccccc34)cc21 -11.8%, COCc1cc(C)nc2sc(C(=O)Nc3ccc(C(C)=O)cc3)c(N)c12 44.4%, CC(=Cc1ccccc1)C=C1SC(=S)N(CC(=O)O)C1=O 11.2%, CCC(=O)N1CCc2cc(CNS(=O)(=O)c3ccc(C(C)C)cc3)ccc21 -24.1%, COC(=O)c1ccc2c(=O)n(CCCCCC(=O)N3CCN(c4cc(C)ccc4C)CC3)c(=O)[nH]c2c1 17.8%, CCOC(=O)c1c(NC(=O)/C=C/c2ccc(OCC)cc2)sc(C(C)=O)c1C -3.1%, COc1cc2nc(NCCc3ccccc3)n3nc(-c4cccnc4)nc3c2cc1OC -2.13%, COc1cc(NC(=O)CCc2c(C)nc3c(-c4ccc(F)cc4)c(C)nn3c2C)cc(OC)c1OC -2.04%, COc1ccc(CNC(=O)C(Cc2ccccc2)NS(=O)(=O)c2ccc3c(c2)CCN3C(C)=O)cc1 (centres undefined) -29.5%, CCOc1ccc(NC(=O)CC2C(=O)N(c3ccc(OC)cc3)C(=O)N2C2CCCCC2)cc1 (centres undefined) -5.37%, O=C(CSc1ncc2c(n1)-c1cc(Cl)ccc1N(Cc1ccccc1)S2(=O)=O)NCCc1ccccc1 -11.1%, CCS(=O)(=O)N1CC(CC#N)(n2cc(-c3ncnc4[nH]ccc34)cn2)C1 33.6%, CS(=O)(=O)Nc1ccc(-c2nc3ccccc3s2)cc1 0%, CCOC(=O)COc1cc(C)c(Cl)cc1C(=O)c1ccn2nc(-c3ccc(OC)cc3)cc2n1 -7.21%, CN(CCCN1c2ccccc2CCc2ccccc21)CC(=O)c1ccc(Cl)cc1 0.327%, CCOC(=O)c1ccc(NC(=O)CSc2nc(-c3ccc(F)cc3)cc(C(F)(F)F)c2C#N)cc1 -3.77%, Cc1ccc(NC(=O)Nc2c(C)n(C)n(-c3ccccc3)c2=O)c(Cl)c1 -29.5%, CCOc1ccc(NC(=O)C2=C(C)C(=O)OC23CCC(C)CC3)cc1 (centres undefined) -7.89%, CC(C)c1ccc(NC(=O)Cc2ccc(NC(=O)N3CCCCc4ccccc43)cc2)cc1 -20.2%, COc1ccc(C2CC(=O)c3cc(-c4nc(-c5ccc(C)cc5)cs4)c(=O)[nH]c3C2)cc1 (centres undefined) -8.7%, CCC1CN(C(=O)NCc2ccc(F)cc2)c2cc(Cl)ccc2O1 (centres undefined) -9.89%, CCOc1cccc(CNC(=O)c2ccc(N3CCCC3)c(NC(=O)Nc3ccccc3CC)c2)c1 -11.3%, CCOC(=O)c1c(C)[nH]c(C)c1S(=O)(=O)N(C)CC(=O)NCc1ccc(C)cc1 -32.9%, COc1ccc(NC(=O)C2CCCN(S(=O)(=O)c3c(C)[nH]c(=O)[nH]c3=O)C2)cc1 (centres undefined) -12.8%, CCn1cc(S(=O)(=O)c2ccc(OC)cc2)c(=O)c2cc(F)c(N3CCCCCC3)cc21 0.566%, Nc1nc(Nc2cccc(Cl)c2)sc1C(=O)c1ccc(F)cc1 -23.5%, COc1ccc(-c2nn(-c3ccc(C)c(Cl)c3)c3c2cnc2cc(OC)c(OC)cc23)cc1 5.04%, CCOc1ccc(/C=C/C(=O)Nc2sc3c(c2C(=O)OC)CCCC3)cc1 16.5%, CCC(Oc1ccccc1)C(=O)Nc1cc(-c2ccccc2F)nn1-c1ccccc1 (centres undefined) -32.2%, CCN(CC)S(=O)(=O)c1ccc2c(c1)N(CC(=O)NCCc1ccccc1)C(=O)CO2 -6.61%, CCOc1ccc2nc(N3CCCC(C(=O)Nc4ccc(CC)cc4)C3)sc2c1 (centres undefined) 30.8%
